{"source": "paper PMC5584178", "binders": {"B1": {"name": "Chk2^Cds1.nYFP (enzyme, UniProt Q09170 1-460)", "chain": "MEEPEEATQATQEAPLHVSQNIAKQVVNNENVFMKLVMTRMLDGKTEVIPLTTDVHNGFWRFGRHKSCEVVLNGPRVSNFHFEIYQGHRNDSDESENVVFLHDHSSNGTFLNFERLAKNSRTILSNGDEIRIGLGVPKDEISFLCQVPVKHSRDSQKNMIKSENSHYEIIRTLGSGTFAVVKLAVEVNSGKWYAIKIINKRKILLTSSEKRATEMFQREIDILKSLHHPGVVQCHEIFENDDELFIVMEYVEGGDLMDFLIANGSIDEQDCKPLLKQLLETLLHLHKQGVTHRDIKPENILITNDFHLKISDFGLAKVIHGTGTFLETFCGTMGYLAPEVLKSKNVNLDGGYDDKVDIWSLGCVLYVMLTASIPFASSSQAKCIELISKGAYPIEPLLENEISEEGIDLINRMLEINPEKRISESEALQHPWFYTVSTHEHRTPPSSSEHEATEQLNSSS"}}, "key": {"[1]": {"target": "T1, Sid4.T275AS278AcYFP (fission yeast) (UniProt O60187)", "T1 sequence": "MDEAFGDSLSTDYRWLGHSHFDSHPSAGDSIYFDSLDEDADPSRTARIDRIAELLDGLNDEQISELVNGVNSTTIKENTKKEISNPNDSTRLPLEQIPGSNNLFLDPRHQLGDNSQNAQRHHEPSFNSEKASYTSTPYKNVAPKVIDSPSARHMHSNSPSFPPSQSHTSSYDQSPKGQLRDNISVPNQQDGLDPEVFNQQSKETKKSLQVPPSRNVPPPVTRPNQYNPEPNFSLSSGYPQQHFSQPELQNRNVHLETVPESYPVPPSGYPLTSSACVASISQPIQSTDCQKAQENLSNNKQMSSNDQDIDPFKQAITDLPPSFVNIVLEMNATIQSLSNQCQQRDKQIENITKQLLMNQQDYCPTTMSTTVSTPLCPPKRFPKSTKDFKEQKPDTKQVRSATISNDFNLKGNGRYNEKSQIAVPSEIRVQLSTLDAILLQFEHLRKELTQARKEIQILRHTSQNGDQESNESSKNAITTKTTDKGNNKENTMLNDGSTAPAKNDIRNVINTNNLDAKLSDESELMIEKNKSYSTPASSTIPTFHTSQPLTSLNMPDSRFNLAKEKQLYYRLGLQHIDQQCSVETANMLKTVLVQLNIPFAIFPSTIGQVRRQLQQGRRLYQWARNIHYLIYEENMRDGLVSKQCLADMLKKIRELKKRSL", "assay": "split reporter; BiFc with halves of Venus YFP fused to Cds1 and Sid4, fluorescence at the SPB of live S. pombe cells; dma1^+ and dma1.Δ strains"}, "[2]": {"target": "T2, Sid4.cYFP (fission yeast) (UniProt O60187)", "T2 sequence": "T1 sequence with A275T, A278S", "assay": "split reporter; BiFc with halves of Venus YFP fused to Cds1 and Sid4, fluorescence at the SPB of live S. pombe cells; dma1^+ and dma1.Δ strains"}}, "note": "Where a chain is given by its changes, count along the chain named. These are yes or no findings as the source states them, for the method shown. Binding seen in cells or lysates may run through a third protein. Some binding calls cover weakened binding; strength is not graded here. Tags and fused reporters may be left off the sequences shown.", "data": [{"binder": "B1", "values": [{"measurement": "binding", "setting": "[1]", "result": "no binding"}, {"measurement": "binding", "setting": "[2]", "result": "binds"}]}]}
